The supplement of paper PMC4967469
The IC50 comes from the fitted curve, where viability falls to half of the control; a limit (>, <) means that the fit lies beyond the doses tested. AUC is the area under the same curve over the 256-fold range up to the top dose, as a fraction; values near 1 show little effect. For some assays here: The top dose, if marked as inferred, comes from the curve model; the source does not state it. For some assays here: An entry number marks a drug with two screens in the source, which often give different values.

Assays:
Assay in all cases: Viability of human cancer cell lines after 72 h of drug (GDSC screen)
Crizotinib = compound: C[C@@H](Oc1cc(-c2cnn(C3CCNCC3)c2)cnc1N)c1c(Cl)ccc(F)c1Cl [Crizotinib]; conditions: top dose 2 µM
Method: (§1)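 Human cancer cell lines in 384-well plates, medium with 10% serum, drug for 72 h over a 256-fold dose range (nine 2-fold or five 4-fold steps up to the top dose). Adherent lines were fixed and stained with the nucleic acid dye Syto60, suspension lines read with resazurin; signal relative to control wells, capped at 0 and 100%. One two-parameter sigmoid per drug and line, fitted in a mixed model over all curves with the slope shared within a line.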

AICAR = compound: NC(=O)c1ncn([C@@H]2O[C@H](CO)[C@@H](O)[C@H]2O)c1N [AICAR]; conditions: top dose 2000 µM; top dose inferred
Method: as §1

AKT inhibitor VIII = compound: O=c1[nH]c2ccccc2n1C1CCN(Cc2ccc(-c3[nH]c4cc5ncnc5cc4nc3-c3ccccc3)cc2)CC1 [AKT inhibitor VIII]; conditions: top dose inferred
Method: as §1

[1] = top dose 2.56 µM, screen: GDSC drug entry 171
[2] = top dose 10.24 µM, screen: GDSC drug entry 228

Row | Cell Line | AUC (Crizotinib) | IC50 (Crizotinib) [µM] | AUC (AICAR) | IC50 (AICAR) [µM] | AUC (AKT inhibitor VIII; [1]) | IC50 (AKT inhibitor VIII; [1]) [µM] | AUC (AKT inhibitor VIII; [2]) | IC50 (AKT inhibitor VIII; [2]) [µM]
1 | 697 (lymphoblastic leukaemia, suspension) | 0.92 | > 2 | 0.714 | 435 | 0.952 | > 2.56 | 0.372 | 0.307
2 | A3-KAW (B-cell lymphoma, suspension) | 0.973 | > 2 | 0.642 | 283 | 0.985 | > 2.56 | 0.836 | 4.93
3 | A101D (melanoma, adherent) | 0.959 | > 2 | 0.638 | 329 | 0.947 | > 2.56 | 0.973 | > 10.2
4 | A388 (skin, adherent) | 0.943 | > 2 | 0.902 | > 2000 | 0.895 | > 2.56 | 0.849 | 9.54
5 | A498 (kidney, adherent) | 0.898 | > 2 | 0.926 | > 2000 | 0.753 | 1.27 | 0.958 | > 10.2
6 | ALL-PO (lymphoblastic leukaemia, suspension) | 0.872 | > 2 | 0.617 | 267 | 0.949 | > 2.56 | 0.457 | 0.486
7 | ALL-SIL (T-cell leukaemia, suspension) | 0.668 | 0.341 | 0.679 | 364 | 0.94 | > 2.56 | 0.426 | 0.414
8 | ATN-1 (T-cell lymphoblastic leukaemia, suspension) | 0.92 | > 2 | 0.751 | 622 | 0.983 | > 2.56 | 0.604 | 1.21
9 | BB30-HNC (head and neck, adherent) | 0.97 | > 2 | 0.756 | 669 | 0.858 | 2.04 | 0.876 | 9.85
10 | BC-1 (B-cell lymphoma, suspension) | 0.959 | > 2 | 0.881 | 1560 | 0.941 | > 2.56 | 0.817 | 4.67
11 | BV-173 (chronic myeloid leukaemia, suspension) | 0.845 | 1.2 | 0.578 | 198 | 0.973 | > 2.56 | 0.7 | 2.15
12 | C2BBe1 (large intestine, adherent) | 0.98 | > 2 | 0.731 | 630 | 0.944 | > 2.56 | 0.946 | > 10.2
13 | CAS-1 (glioma, adherent) | 0.97 | > 2 | 0.964 | > 2000 | 0.96 | > 2.56 | 0.94 | > 10.2
14 | CMK (acute myeloid leukaemia, suspension) | 0.9 | 1.87 | 0.879 | 1510 | 0.975 | > 2.56 | 0.766 | 3.22
15 | COR-L88 (small cell lung carcinoma, adherent) | 0.98 | > 2 | 0.908 | > 2000 | 0.981 | > 2.56 | 0.923 | > 10.2
16 | COR-L279 (small cell lung carcinoma, suspension) | 0.99 | > 2 | 0.924 | > 2000 | 0.952 | > 2.56 | 0.865 | 7.48
17 | CTV-1 (acute myeloid leukaemia, suspension) | 0.735 | 0.496 | 0.732 | 486 | 0.962 | > 2.56 | 0.592 | 1.08

Row | Cell Line | AUC (Crizotinib) | IC50 (Crizotinib) [µM] | AUC (AICAR) | IC50 (AICAR) [µM] | AUC (AKT inhibitor VIII; [1]) | IC50 (AKT inhibitor VIII; [1]) [µM] | AUC (AKT inhibitor VIII; [2]) | IC50 (AKT inhibitor VIII; [2]) [µM]
18 | HCE-4 (oesophagus, adherent) | 0.99 | > 2 |  |  | 0.943 | > 2.56 | 0.954 | > 10.2
19 | KALS-1 (glioma, adherent) | 0.956 | > 2 |  |  | 0.928 | > 2.56 | 0.91 | > 10.2
20 | KP-N-RT-BM-1 (neuroblastoma, semi-adherent) | 0.802 | 1.36 |  |  |  |  |  | 
21 | NK-92MI (lymphoid neoplasm, suspension) | 0.953 | > 2 |  |  | 0.987 | > 2.56 | 0.829 | 5.79
22 | SCC-3 (B-cell lymphoma, suspension) | 0.643 | 0.278 |  |  | 0.997 | > 2.56 | 0.912 | 7.3
23 | SCC-15 (head and neck, adherent) | 0.98 | > 2 |  |  | 0.976 | > 2.56 | 0.911 | > 10.2
24 | SIG-M5 (acute myeloid leukaemia, suspension) | 0.98 | > 2 |  |  | 0.953 | > 2.56 | 0.53 | 0.759
25 | SKM-1 (haematopoietic neoplasm, suspension) | 0.982 | > 2 |  |  |  |  |  | 
26 | TC-71 (Ewing sarcoma, adherent) | 0.992 | > 2 |  |  | 0.992 | > 2.56 | 0.867 | 6.76
27 | TE-10 (oesophagus, adherent) | 0.959 | > 2 |  |  | 0.926 | > 2.56 | 0.924 | > 10.2
28 | TE-15 (oesophagus, suspension) |  |  | 0.814 | 1270 | 0.91 | > 2.56 | 0.837 | 8.14
29 | TE-441-T (rhabdomyosarcoma, adherent) | 0.973 | > 2 |  |  | 0.985 | > 2.56 | 0.965 | > 10.2
30 | TGBC1TKB (biliary tract, adherent) |  |  | 0.783 | 837 | 0.985 | > 2.56 | 0.979 | > 10.2
31 | TGBC11TKB (stomach, adherent) |  |  | 0.923 | > 2000 | 0.991 | > 2.56 | 0.946 | > 10.2
32 | TGW (neuroblastoma, adherent) |  |  | 0.719 | 470 | 0.991 | > 2.56 | 0.877 | 7.79
33 | THP-1 (acute myeloid leukaemia, suspension) |  |  | 0.911 | > 2000 | 0.99 | > 2.56 | 0.681 | 1.93
